Measured values taken from PubChem BioAssay AID2147 (National Center for Advancing Translational Sciences (NCATS), 2009).
Hit rate of the full screen: of about 230,000 compounds, about 3,600 (1.6%) were called active. The inconclusive results got no clear call from the source; some entries with a clear call stand among them for comparison. Calls come from the whole dose curve; as a rule, active = well fitted inhibition curve with a large enough effect (not every such curve was filed as active); inconclusive = small, poorly fitted or top-dose-only effect, or another doubt; inactive = no such curve, though single readings can be large or run the other way. Potencies of inconclusive entries are doubtful fits and often do not repeat.

What follows are compounds tested against Lysine-specific demethylase 4E (Homo sapiens) (UniProt B2RXH2) (assay: qHTS Assay for Inhibitors of Human Jumonji Domain Containing 2E (JMJD2E)). Conditions: JMJD2E catalytic domain, FDH-coupled NADH fluorescence (FDH is formaldehyde dehydrogenase); series mostly up to 57.1 µM.
Note: nearly all actives have a fitted effect of over 50% in size.
Potency is the fitted concentration of half-maximal effect; tags give direction and shape of the fitted curve.

Chain of UniProt B2RXH2 (B2RXH2 whole entry, looked up, the tested form may be a part): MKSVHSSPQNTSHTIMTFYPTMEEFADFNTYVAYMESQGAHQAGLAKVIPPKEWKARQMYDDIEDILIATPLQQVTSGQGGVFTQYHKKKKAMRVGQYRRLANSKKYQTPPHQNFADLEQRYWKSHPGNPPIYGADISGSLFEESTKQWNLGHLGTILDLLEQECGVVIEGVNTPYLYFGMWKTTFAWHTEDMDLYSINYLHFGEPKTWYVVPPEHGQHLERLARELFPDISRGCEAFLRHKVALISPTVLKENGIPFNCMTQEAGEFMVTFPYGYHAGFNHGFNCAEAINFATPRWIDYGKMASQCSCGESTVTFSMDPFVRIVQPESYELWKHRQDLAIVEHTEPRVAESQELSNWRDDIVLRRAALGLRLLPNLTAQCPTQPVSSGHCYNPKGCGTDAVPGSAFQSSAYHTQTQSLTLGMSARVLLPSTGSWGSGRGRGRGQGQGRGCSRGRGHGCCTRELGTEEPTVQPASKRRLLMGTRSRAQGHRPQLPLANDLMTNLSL

SMILES	Potency
CCOc1cccc(C(=O)NC(=S)Nc2cccnc2)c1	inconclusive: 35.5 µM [inhibitor, single point]
CCCCC1(COC(=O)CCC(=O)O)C(=O)N(c2ccccc2)N(c2ccccc2)C1=O	inactive
Cc1ccc(F)cc1NC(=O)N1CCCN(c2ccc(C(F)(F)F)cn2)CC1	inconclusive: 35.5 µM [inhibitor, single point]
COCC(C)NC(=O)CSc1nc(-c2ccccc2)c(-c2ccccc2)o1 (stereo unspecified)	inactive
COC(=O)[C@@H]1C[C@@]2(O)[C@@H](O)[C@@H](O)[C@@H](O)C[C@H]2N1C/C=C/c1ccccc1	inconclusive: 35.5 µM [inhibitor, single point]
O=C1OCC2=C1C(c1ccc(F)cc1)Sc1ccccc1N2 (stereo unspecified)	inactive
Cc1cc(C(=O)OCC(=O)NC(C)(C)C)c2ccccc2n1	inconclusive: 14.1 µM [inhibitor, partial curve]
Oc1c(C(c2cccs2)N2CCN(c3ccccc3)CC2)ccc2cccnc12 (stereo unspecified)	active: 7.94 µM
CN(C(=O)CC1C(=O)NCCN1CC1CCCCC1)C1CCOCC1 (stereo unspecified)	inconclusive: 28.2 µM [inhibitor, partial curve]
COCCNC(=S)Nc1ccc([N+](=O)[O-])cc1C	inactive
COc1ccc(OC)c2c1C(=O)c1ccccc1C2=O	inconclusive: 39.8 µM [inhibitor, single point]
C#CCOCCOCCOCCNc1nc(N2CCN(C(=O)[C@H](CCC(=O)O)n3cc(C(N)Cc4ccc(O)cc4)nn3)CC2)nc(N2CCN(C(=O)[C@H](Cc3ccc(O)cc3)n3cc(C(N)CC(C)C)nn3)CC2)n1 (stereo partly specified)	inconclusive: 22.4 µM [inhibitor, single point]
COC(=O)c1cn(NC(=O)c2cc([N+](=O)[O-])ccc2F)c(=O)c2ccccc12	inconclusive: 39.8 µM [inhibitor, single point]
CCOC(=O)c1nn(-c2ccc(OC)cc2)c(=O)c2c(N)scc12	inconclusive: 2.82 µM [inhibitor, full curve]
O=C(CSc1ccc([N+](=O)[O-])cn1)Nc1ccc2c(c1)OCCO2	inactive
CS(=O)(=O)N1CCN(C(=S)NCc2ccc(Cl)cc2)CC1	inactive
CCOC(=O)C1CCCN(Cc2c(F)cccc2Cl)C1 (stereo unspecified)	inconclusive: 39.8 µM [inhibitor, single point]
O=C(Nc1ccc2nc(-c3ccco3)[nH]c2c1)c1cccs1	inactive
CCO[C@H]1OC(C(=O)NC2CC2)=C[C@@H](c2coc3ccccc3c2=O)[C@@H]1CCCO	inconclusive: 35.5 µM [inhibitor, single point]
CCCCc1c(C)nc2cc(-c3ccco3)[nH]n2c1=O	inconclusive: 31.6 µM [inhibitor, partial curve]
CCOC(=O)c1ccc(NC(=S)NCCc2ccc(F)cc2)cc1	inactive
Cc1cc(/C=N/n2cnnc2)c(C)n1-c1ccc(OCc2ccccc2F)cc1	inactive
CSc1nsc(/C=C/Nc2ccc(C(=O)O)cc2)c1C#N	active: 22.4 µM
COc1ccc(/C=C/C(=O)Nc2nc(C)c(C(=O)N(C)C)s2)cc1OC	inconclusive: 35.5 µM [inhibitor, single point]

SMILES	Potency
COc1cc(/C=N/NC(=O)c2cccnc2)ccc1OCC(=O)Nc1ccc(C)cc1	inconclusive: 35.5 µM [inhibitor, partial curve]
COc1ccc2nc(SCC(=O)Nc3ccccc3C)[nH]c2c1	inactive
Cc1ccc(NC(=O)Cc2ccc3c(c2)OCCO3)cc1S(=O)(=O)N1CCCCC1	inactive
CC(C)(C)CN1CCNC(=O)C1CC(=O)NCc1cccc(-n2cccn2)c1 (stereo unspecified)	inconclusive: 1 µM [inhibitor, full curve, poor fit]
COCCN1CCn2c(nc3cc(Nc4nnc(C)c5ccccc45)ccc32)C1	inconclusive: 44.7 µM [inhibitor, partial curve, poor fit]
CCNc1nc2[nH]c(=O)c3c(c2s1)OC(N)=C(C#N)C3c1ccc(C)cc1 (stereo unspecified)	inconclusive: 17.8 µM [inhibitor, single point]
COc1cc(CN2CCC(C(=O)N3CCN(c4ccccc4F)CC3)CC2)cc(OC)c1O	inconclusive: 39.8 µM [inhibitor, single point]
CC(=O)Oc1ccc2c(c1)Oc1cc(OC(C)=O)ccc1C21OC(=O)c2ccccc21	inactive
COc1ccc(C2C(C(=O)N3CCN(c4ccccn4)CC3)CCC(=O)N2c2ccc(OC)cc2)cc1 (stereo unspecified)	inconclusive: 22.4 µM [inhibitor, partial curve]
COc1cccc(-c2nnc(NC(C)=O)o2)c1	inconclusive: 39.8 µM [inhibitor, single point]
O=C(Nc1cccc2nsnc12)C1CC(=O)N(c2ccccc2)C1 (stereo unspecified)	inconclusive: 39.8 µM [inhibitor, single point]
CCN(CC)c1ccc(C=Nc2ccc(N(C)C)cc2)c(O)c1	inactive
O=C(CSc1ncn[nH]1)Nc1cc(S(=O)(=O)N2CCCC2)ccc1Cl	inconclusive: 31.6 µM [inhibitor, single point]
CCCCc1cc(=O)oc2c(CN3CCCC3)c(O)ccc12	inconclusive: 2 µM [inhibitor, partial curve]
CC(=O)C(Cc1cnc(Cl)s1)(Cc1cnc(Cl)s1)C(C)=O	inactive
Cc1ccc(OCCC(=O)OCC(=O)Nc2ccc(Cl)cn2)cc1	inconclusive: 39.8 µM [inhibitor, single point]
Cc1ccc(S(=O)(=O)N/N=C/c2ccc(O)c(O)c2)cc1[N+](=O)[O-]	active: 28.2 µM
O=c1[nH]c(=O)c2ncc(-c3ccc(Cl)cc3)nc2[nH]1	inconclusive: 1.41 µM [inhibitor, full curve]
O=C(CN1C(=O)NC2NC(=O)NC21)N/N=C/c1ccccc1O (stereo unspecified)	inconclusive: 31.6 µM [inhibitor, partial curve]
CC(C)Sc1nnc(NC(=O)c2ccco2)s1	inactive
COc1cc(OC)cc(C(=O)Oc2ccc(/C=N/Nc3nc4ccccc4s3)cc2OC)c1	active: 35.5 µM
Cc1ccc(C(=O)N/C(=C\c2ccco2)C(=O)NCC2CCCO2)cc1C (stereo unspecified)	inconclusive: 39.8 µM [inhibitor, single point]
O=C(O)COc1cccc2nsnc12	active: 20 µM
Cc1ccc(C)c(C(=O)CSc2nnc(C)s2)c1	inactive

SMILES	Potency
O=C(N/N=C(\Cc1ncc[nH]1)c1ccccc1)c1cccnc1	inactive
NNc1nc(-c2ccccc2)c2ccccc2n1	inactive
CCCOc1ccc(C2c3c(oc4ccccc4c3=O)C(=O)N2CCCN2CCOCC2)cc1 (stereo unspecified)	inconclusive: 28.2 µM [inhibitor, single point]
CCOC(=O)CN(C(=O)COc1nc(-c2ccccc2)cc(C)c1C#N)c1ccc(C)cc1	inconclusive: 35.5 µM [inhibitor, partial curve]
CCOc1ccc2oc(C(=O)NCC(C)(C)CN(C)C)c(C)c2c1	inconclusive: 28.2 µM [inhibitor, partial curve]
CSc1nnc(-c2ccc(S(=O)(=O)N3CCCC3)cc2)n1C	inconclusive: 31.6 µM [inhibitor, partial curve]
COc1ccc(CCC(C(O)C(F)(F)F)S(=O)c2ccccc2)cc1 (stereo unspecified)	inconclusive: 39.8 µM [inhibitor, single point]
O=S(=O)(NCc1ccccc1F)c1cccc(S(=O)(=O)N2CCOCC2)c1	inconclusive: 31.6 µM [inhibitor, partial curve]
COCC(=O)N1CCCC(C(=O)c2ccc3c4c(cccc24)CC3)C1 (stereo unspecified)	inconclusive: 31.6 µM [inhibitor, partial curve]
COc1ccc2c(c1)CCc1sc(NC(=O)c3ccc(C)cc3)nc1-2	inconclusive: 31.6 µM [inhibitor, single point]
CCOC(=O)C1=C(CC)Nc2ccccc2N/C1=N\S(=O)(=O)c1ccc2ccccc2c1	inactive
Nc1c(C(=O)Nc2nccs2)sc2nc(-c3cccs3)cc(C(F)(F)F)c12	inconclusive: 35.5 µM [inhibitor, single point]
Cc1nc2ccccc2nc1NS(=O)(=O)c1ccc(N)cc1	inconclusive: 35.5 µM [inhibitor, single point]
CCOC(=O)c1nn(-c2ccccc2)c2nc(Nc3ccccc3)cc(=O)n12	inconclusive: 39.8 µM [inhibitor, single point]
Cc1oc2ccccc2c1-c1cn2c(n1)SCC2	inconclusive: 14.1 µM [inhibitor, partial curve]
Cc1cc(NCc2ccccc2)nc2ccccc12	inconclusive: 35.5 µM [inhibitor, partial curve]
Cc1ccc(-c2noc(-c3cc4ccccc4oc3=O)n2)cc1	inconclusive: 7.08 µM [inhibitor, single point]
CN(C)CCNc1oc(-c2ccccc2F)nc1C#N	inconclusive: 31.6 µM [inhibitor, partial curve]
CCc1c(C)nc2[nH]nc(-c3ccccc3C)n2c1=O	inconclusive: 22.4 µM [inhibitor, partial curve]
C/C(CC(=O)Nc1ccc(N(C)C)cc1)=N\NC(=O)Cc1csc(N)n1	inactive
Cc1c(NC(=O)c2ccc3c(c2)C(=O)N(CC2CCCO2)C3=O)cccc1C(=O)O (stereo unspecified)	inactive
Fc1ccc(N=C2NN=C(c3cc(F)ccc3F)CS2)cc1	inconclusive: 39.8 µM [inhibitor, single point]
CSc1nnc(Cn2c(=O)sc3ccccc32)n1CCc1ccccc1	inactive
